The campaign covered roughly 110,000 compounds. About 40 (0.04%) were called active. Inconclusive means that the source gave no clear call. Such entries were picked first, then a sample of the others. Calls follow the shape of the dose curve; as a rule, active = well fitted curve in the direction sought with a large enough effect in the signal ratio (not every such curve was filed as active); inconclusive = small, poorly fitted or top-dose-only effect, or a change in a side signal; inactive = flat fitted curve, though single readings scatter; the % refers to the signal ratio. Potencies beside an inconclusive call are fits to weak or partial responses and may not hold up.
assay: IkB Signaling; conditions: ABC-DLBCL IkBa-CBG/CBR dual luciferase ratio (green luciferase fused to IkBa over red control in OCI-Ly3 lymphoma cells), 4 h; IkBa stabilization activation: at 57.1 µM (top of the series), scaled: untreated 0%, proteasome inhibitor 100% unless noted;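 as to IkBa stabilization activation: 0% = basal untreated cells and 100% = reference inhibitor full response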
In short: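 Luminescence ratio of IκBα-fused green versus native red beetle luciferase in OCI-Ly3 cells, 4 h post-doxycycline with compound; red signal alone, scaled from basal (0%) to zero light (-100%), flagged nonspecific or cytotoxic effects.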
Potency is read from the fitted curve at half-maximal effect.

Row | SMILES | IkBa stabilization activation | Potency
1 | Cc1cccc(C)c1NC(=O)CN(C)S(=O)(=O)c1ccc2c(c1)n(C)c(=O)c(=O)n2C | inactive | –
2 | CCc1ccc(OCC(=O)NCC(c2ccc(OC)cc2)N2CCOCC2)cc1 (stereo unspecified) | inactive | –
3 | CC(=O)Nc1cccc(-c2nc3ccccc3c(=O)o2)c1 | inconclusive: 16.1% [signal inhibitor] | –
4 | Cc1ccc2c(CNC3CCC(C)CC3)c(C(=O)O)n(Cc3cccc(F)c3)c2c1 (stereo unspecified) | inconclusive: -0.00646% [signal inhibitor] | –
5 | Cc1cccc(C(=O)N(Cc2nc(-c3ccc(Cl)cc3)no2)C(C)C)c1 | inactive | –
6 | CC(=O)c1cccc(NC(=O)Cn2c(C)c3cnn(-c4ccccc4)c(=O)c3c2C)c1 | inconclusive: 1.72% [signal inhibitor] | –
7 | CC1CCN(c2nc3ccc(C(=O)NCc4ccc(Cl)cc4)cc3s2)CC1 | – | inconclusive: 25.1 µM [signal inhibitor]
8 | COc1ccc(C2CC(=O)N(CC(=O)Nc3ccc(C(F)(F)F)cc3)c3ccccc3S2)cc1 (stereo unspecified) | – | inconclusive: 25.1 µM [signal inhibitor, single point]
9 | CN(Cc1ccccc1)c1nc2c(c(=O)n(C)c(=O)n2C)n1CCCc1ccccc1 | inconclusive: -6.82% [signal inhibitor] | –
10 | COC(=O)c1ccc(OC)c(Cn2c(=O)n(-c3ccc(C)cc3)c(=O)c3c2cnn3C)c1 | inconclusive: 2.92% [signal inhibitor] | –
11 | COc1ccc(C(=O)Nc2ccc3nc(SCC(=O)N4CCOCC4)sc3c2)cc1 | inconclusive: 2.06% [signal inhibitor] | –
12 | CN(C)C(=O)CSc1nnc2sc3ccccc3n12 | inactive | –
13 | CCOC(=O)C1=C(CNCCc2ccc(Cl)cc2)NC(=O)NC1c1ccc2c(c1)OCO2 (stereo unspecified) | inconclusive: 4.93% [signal inhibitor] | –
14 | O=C(Cn1c(=O)nc(-c2ccccc2)c2cc(Cl)ccc21)NCCCc1ccccc1 | inconclusive: 8.01% [signal inhibitor] | –
15 | Cc1cc(O)c(-c2cc(O)c(C)cc2O)cc1O | inactive: 0.261% [at 11.4 µM, scaled: untreated 0%, proteasome inhibitor 100%] | –
16 | COc1cccc(CNC(=O)c2c3c(nc4ccccc24)C(=O)N(C2CCCCC2)C3)c1 | inconclusive: -0.375% [signal inhibitor] | –
17 | CN(C)c1cccc(O)c1 | inactive | –
18 | Cc1noc(C)c1COC(=O)c1ccc2c(c1)S(=O)(=O)c1ccccc1C2=O | inactive | –
19 | COc1ccc(-c2nc(SCC(=O)N3CCC(C)CC3)n[nH]2)cc1 | inconclusive: 0.224% [signal inhibitor] | –
20 | Cc1ccc(Cl)cc1NC(=O)/C(C#N)=C\c1cn(Cc2ccc(F)cc2)c2ccccc12 | inconclusive: 3.22% [signal inhibitor] | –
21 | Fc1ccc(CNc2cc(-c3ccccc3)nc3nncn23)cc1 | inconclusive: -0.382% [signal inhibitor] | –
22 | Cc1ccccc1C(=O)Nc1ccc2nc(SCCOc3ccccc3)sc2c1 | inconclusive: 1.59% [signal inhibitor] | –
23 | CCOC(=O)c1c(S(=O)(=O)NCC(=O)NCc2ccc(C)cc2)c(C)n(C)c1C | inconclusive: 0.0816% [signal inhibitor] | –
24 | COc1cccc(CCNc2ncnc3c2nnn3C)c1 | inactive | –

Row | SMILES | IkBa stabilization activation | Potency
25 | O=C(NCc1ccc2c(c1)OCO2)c1nn(-c2ccccc2)c(=O)c2ccccc12 | inactive | –
26 | O=C(NCc1ccc(F)cc1)c1cc2c(s1)-c1ccccc1SC2 | inconclusive: 6.46% [signal inhibitor] | –
27 | O=C(CCCn1c(=O)c2ccccc2n(CC(=O)Nc2ccc(F)cc2F)c1=O)NCc1ccccc1Cl | inconclusive: 18.8% [signal inhibitor] | –
28 | COc1cc2c(=O)n(CCC(=O)NCC3CCCO3)c(=O)n(CC(=O)Nc3c(C)cccc3C)c2cc1OC (stereo unspecified) | inactive | –
29 | CCOc1ncccc1C(=O)OCc1cc(=O)oc2c(C)c(C)ccc12 | inconclusive: 4.29% [signal inhibitor] | –
30 | CCCCOC(=O)c1ccc(NC(=O)/C(C#N)=C/c2ccc(-c3ccccc3)o2)cc1 | – | inconclusive: 2.51 µM [signal inhibitor, full curve]
31 | COc1ccc(S(=O)(=O)c2ccc(OC)c(OC)c2)cc1OC | inactive | –
32 | COc1cc(-c2nnc(SCC(=O)NC(C)C)o2)cc(OC)c1OC | inactive | –
33 | CN(C)c1ccc(CNC(=O)C(Cc2ccccc2)NS(=O)(=O)c2ccc3c(c2)oc(=O)n3C)cc1 (stereo unspecified) | inconclusive: 0.694% [signal inhibitor] | –
34 | Cc1nn(-c2ccccc2)c2sc(C(=O)N3CCOCC3)cc12 | inactive | –
35 | O=S(=O)(CC(CN1CCCC1)N1CCCC1)c1ccc2ccccc2c1 (stereo unspecified) | inconclusive: 3.67% [signal inhibitor] | –
36 | Cc1ccc(S(=O)(=O)Nc2cccc(-c3cn4ccsc4n3)c2)cc1 | inconclusive: 0.191% [signal inhibitor] | –
37 | CN1C(=O)c2ccccc2Sc2ccc(NC(=O)COc3ccc(Cl)cc3)cc21 | inconclusive: 1.78% [signal inhibitor] | –
38 | Cn1c(-n2cccc2)c(-c2c(-c3ccc(F)cc3)[nH]c3c2c(=O)[nH]c(=O)n3C)c(=O)[nH]c1=O | inactive | –
39 | Cc1ccnc2ccc(-c3nc4ccccc4o3)cc12 | inconclusive: 2.28% [signal inhibitor] | –
40 | O=C(Nc1ccc(OC(F)(F)F)cc1)C1=NCCN1 | inactive | –
41 | Cc1cc(C)nc(N2CCN(c3ncnc4c3cnn4Cc3ccc(Cl)cc3Cl)CC2)n1 | inactive | –
42 | COc1ccc(-n2c(Cc3cccn3C)nnc2SCC(=O)Nc2cc(Cl)ccc2OC)cc1 | inconclusive: -1.5% [signal inhibitor] | –
43 | CCn1c(NC(=O)Nc2ccccc2OC)nc2ccccc21 | inconclusive: 16.3% [signal inhibitor] | –
44 | CCOC(=O)c1[nH]c(C)c(C(=O)N2CCc3ccccc32)c1C | inactive | –
45 | COc1cccc(C2Nc3ccccc3-c3nnc(SCc4ccccc4)nc3O2)c1OC (stereo unspecified) | – | inconclusive: 25.1 µM [signal inhibitor, partial curve]
46 | Cc1ccc(S(=O)(=O)c2nc(-c3ccccc3)oc2SCC(=O)NC2CCCCC2)cc1 | inconclusive: 1.39% [signal inhibitor] | –
47 | O=C(Nc1ccc(F)c(Cl)c1)C1CCCN1S(=O)(=O)c1ccc(F)cc1 (stereo unspecified) | inconclusive: 2.32% [signal inhibitor] | –
48 | CCOc1ccc(-c2nnc(N)s2)cc1 | inactive | –

Row | SMILES | IkBa stabilization activation | Potency
49 | c1csc(-c2nnsc2-c2nc3ccccc3[nH]2)c1 | inconclusive: 6.19% [signal inhibitor] | –
50 | COc1ccc(CNc2ccnc(-c3ccc(C(=O)N(C)C)cc3)n2)c(OC)c1 | inactive: -1.48% [at 11.4 µM, scaled: untreated 0%, proteasome inhibitor 100%] | –
51 | O=C(c1cc(-c2cccs2)on1)N1CCc2ccccc2C1 | – | inconclusive: 15.8 µM [signal inhibitor, partial curve]
52 | COc1ccc(N(CC(=O)N2CCN(c3cccc(OC)c3)CC2)S(=O)(=O)c2c(C)noc2C)cc1 | inactive | –
53 | CSc1nc(-c2ccco2)nn1S(=O)(=O)c1ccc(C)cc1 | inactive | –
54 | CCc1ccc(N2C(=O)CS(=O)(=O)C23C(=O)N(Cc2ccccc2F)c2ccccc23)cc1 (stereo unspecified) | inconclusive: -0.422% [signal inhibitor] | –
55 | CCOc1cc(C2c3c(oc4ccccc4c3=O)C(=O)N2Cc2ccccc2Cl)ccc1O (stereo unspecified) | inconclusive: 11.6% [signal inhibitor] | –
56 | O=C(N/N=C\c1ccc2c(c1)CCC2)c1ccccc1O | – | inconclusive: 3.16 µM [signal inhibitor, partial curve]
57 | Cc1ccc(Nc2ncnc3nc[nH]c23)cc1Cl | inconclusive: 14.2% [signal inhibitor] | –
58 | Cc1cc(NC(=O)Nc2ccc(N(C)C)cc2)c2cc(F)cc(F)c2n1 | inconclusive: 1.65% [signal inhibitor] | –
59 | Cc1cc(C)c2cc(CN(CCN3CCCC3)C(=O)Nc3ccc(F)cc3)c(=O)[nH]c2c1 | inactive | –
60 | Cc1cc(NC(=O)CN2C(=O)CSc3ccc(S(=O)(=O)N(C)C)cc32)ccc1Br | inconclusive: 1.87% [signal inhibitor] | –
61 | CC(C)CC(/C(O)=C(\C#N)c1nc2ccccc2[nH]1)N1C(=O)c2ccccc2C1=O (stereo unspecified) | – | inconclusive: 31.6 µM [signal inhibitor, partial curve]
62 | CSc1ccc(CCNC(=O)c2ccc3c(c2)nc2n3CCOC2)cc1 | inconclusive: 1.13% [signal inhibitor] | –
63 | CC(C)c1nnc(NC(=O)c2nc(S(=O)(=O)Cc3ccccc3)ncc2Cl)s1 | inactive | –
64 | Cc1ccc(NC(=O)c2ccc(F)c(S(=O)(=O)N3CCc4ccccc4C3)c2)cc1F | inconclusive: -0.102% [signal inhibitor] | –
65 | CCOC(=O)c1[nH]c2c(c1C)C(=O)CC(c1ccc(F)cc1)C2 (stereo unspecified) | inconclusive: 2.4% [signal activator] | –
66 | CCOC(=O)c1scc(-c2ccc(C)cc2)c1S(=O)(=O)Nc1ccc(F)c(F)c1 | inconclusive: -0.0399% [signal inhibitor] | –
67 | Cn1c(=O)n(CCCc2ccccc2)c(=O)c2c1nc1n2CCN1c1ccccc1 | inconclusive: 1.42% [signal inhibitor] | –
68 | COCCOC(=O)c1[nH]c2c(c1C)C(=O)C(C(=O)OC)C(C)C2 (stereo unspecified) | inactive | –
69 | C=CCn1c(NCc2ccc3c(c2)OCO3)nc2ccccc21 | inactive | –
70 | CCOC(=O)N1CCc2c(sc(NCc3sccc3C)c2C(=O)Nc2ccccc2OCC)C1 | inconclusive: 0.858% [signal inhibitor] | –
71 | CCCCCn1c(N)c(C#N)c2nc3ccccc3nc21 | inactive | –
